Assay results: PubChem BioAssay AID1508642 (National Center for Advancing Translational Sciences (NCATS), 2021)
The whole screen tested about 43,000 compounds, of which about 200 (0.47%) were called active. Inconclusive results, whose numbers are uncertain, are shown with a selection of clear calls. The call rests on the fitted dose curve; in most records, active means well fitted cell-killing curve with a large enough effect; inconclusive means small, poorly fitted or top-dose-only effect, or effect the other way; inactive means flat fitted curve, though single readings scatter. A potency beside an inconclusive call is a rough fit, not a confirmed value.

Experiment: Cell viability qHTS assay in S16 Pmp22-F2sN cells; further: nearly all actives have a fitted effect of over 65% in size
Conditions: S16 Pmp22-F2sN Schwann cells viability, CellTiter-Glo, 24 h; series mostly up to 57.5 µM
Summary of the method: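 Used to flag compounds lowering reporter output through toxicity, this quantitative HTS measures ATP-based CellTiter-Glo luminescence in S16 Pmp22-F2sN Schwann cells after 24 h compound exposure at 37C.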
Potency means the concentration at half of the fitted maximal effect; tags describe the fitted curve by direction and shape.

Row | Structure (SMILES) | Potency
1 | Cc1ccccc1NC(=O)c1sc2nc3c(cc2c1N)CCCC3 | inconclusive: 4.47 µM [cytotoxic, full curve]
2 | Cc1ccc(C)c(N2CCN(C(=O)c3ccc(CS(=O)(=O)c4ccc(Br)cc4)o3)CC2)c1 | inactive
3 | Cc1csc2nc(COC(=O)c3ccccc3NC(=O)c3ccc(F)cc3)cc(=O)n12 | inconclusive: 0.0282 µM [rising, full curve, poor fit]
4 | Cc1ccc(C(=O)Nc2c(C(=O)NCc3ccc(Cl)cc3)sc3nc(C)cc(C)c23)cc1 | inconclusive: 28.2 µM [cytotoxic, single point]
5 | Cc1ccc(-c2nc(C)c(CCNS(=O)(=O)c3ccccc3F)s2)cc1 | inconclusive: 0.0224 µM [cytotoxic, full curve, poor fit]
6 | CCN(CC)C(=O)c1sc2c(c1C)c(=O)n(-c1ccc(Cl)c(Cl)c1)c(=O)n2Cc1cc(=O)n2c(C)cccc2n1 | inconclusive: 3.98 µM [cytotoxic, full curve]
7 | CN1C(=O)C(C)(C)c2cc(S(=O)(=O)NCc3ccc(C(=O)Nc4ccc(Cl)cc4)cc3)ccc21 | inconclusive: 35.5 µM [cytotoxic, single point]
8 | COc1ccc(OC)c(CNC(=O)Cc2ccc(NC(=O)N3CCCCc4ccccc43)cc2)c1 | inconclusive: 2 µM [cytotoxic, partial curve, poor fit]
9 | O=C(CSc1nccn1Cc1ccc(F)cc1)Nc1ccc2c(c1)OCCO2 | inactive
10 | CCOc1ccc(-c2nc(C#N)c(NCCCOC)o2)cc1 | inconclusive: 10 µM [cytotoxic, partial curve, poor fit]
11 | CC(C)(C)OC(=O)N1CCC(c2c(C(=O)N3CCc4ccccc4C3)cnn2-c2ccc(F)cc2)CC1 | inconclusive: 39.8 µM [cytotoxic, single point]
12 | Cc1ccc(C(=O)NCC(c2cccs2)S(=O)(=O)c2cccs2)cc1 (configuration not stated) | inconclusive: 25.1 µM [cytotoxic, single point]
13 | CCC(Sc1nncn2c1cc1occc12)C(=O)Nc1ccc(C)c(Cl)c1 (configuration not stated) | inconclusive: 39.8 µM [cytotoxic, partial curve, poor fit]
14 | CN1C(=O)c2ccccc2Sc2ccc(NC(=O)Cc3ccc(Cl)cc3)cc21 | inconclusive: 35.5 µM [cytotoxic, single point]
15 | CCCCc1ccc(NC(=O)Cn2cnc3c(oc4ccccc43)c2=O)cc1 | inactive
16 | CC(=O)Nc1ccc(S(=O)(=O)NCCc2csc3nc(-c4ccc(Cl)cc4)nn23)cc1 | inconclusive: 14.1 µM [cytotoxic, partial curve, poor fit]
17 | COc1ccc2c(c1)c1c(c(=O)n(-c3cc(Cl)ccc3C)c(=O)n1CC(=O)N1CCCC1)n2C | inconclusive: 3.16 µM [rising, full curve, poor fit]
18 | CCCCN1C(=O)c2[nH]nc(-c3ccccc3O)c2C1c1ccc(OCc2ccccc2)c(OC)c1 (configuration not stated) | inconclusive: 39.8 µM [cytotoxic, single point]
19 | Cc1ccc(Sc2c(C)nn(C(C)(C)C)c2OC(=O)CC(C)C)cc1 | inconclusive: 17.8 µM [cytotoxic, partial curve, poor fit]

Row | Structure (SMILES) | Potency
20 | Cc1nn(-c2ccccc2)c2nc(C3CC3)cc(C(=O)Nc3cccc(F)c3)c12 | inconclusive: 39.8 µM [cytotoxic, single point]
21 | Cc1ccc(-n2nc(C(=O)N(C)c3ccc(C)c(C)c3)c3c4ccccc4n(C)c3c2=O)cc1 | inconclusive: 11.2 µM [cytotoxic, partial curve]
22 | Cc1ccc(-n2ncc3c(NCCCN(C)C)ncnc32)cc1Cl | inconclusive: 35.5 µM [cytotoxic, single point]
23 | Cc1cc(=O)n(CC(=O)Nc2ccc(Cl)c(Cl)c2)c(-n2nc(C)cc2C)n1 | inconclusive: 31.6 µM [cytotoxic, single point]
24 | CCOc1ccc(CNC(=O)C2CCCN(c3nn4cc(-c5ccc(OC)cc5)nc4s3)C2)cc1 (configuration not stated) | inconclusive: 39.8 µM [cytotoxic, single point]
25 | Cc1ccc(CN2CCC(CNC(=O)c3cnn(-c4ccc(C)cc4)c3C3CCN(C(=O)OC(C)(C)C)CC3)CC2)cc1 | inconclusive: 20 µM [cytotoxic, single point]
26 | COc1ccc(C(=O)Nc2nc3c(s2)Cc2c(Br)ccc(OC)c2-3)cc1OC | inconclusive: 0.708 µM [cytotoxic, partial curve, poor fit]
27 | Cc1cc(C)cc(N(CC(=O)Nc2c(C)cc(C)cc2C)S(=O)(=O)c2c(C)nn(C)c2C)c1 | inconclusive: 25.1 µM [rising, partial curve, poor fit]
28 | COc1ccc(CNC(=O)CCCn2ccc3cc(S(=O)(=O)N4CCCC4)ccc32)cc1 | inconclusive: 39.8 µM [cytotoxic, single point]
29 | COc1ccc(CCNS(=O)(=O)c2c(C)nc3sc(C)cn3c2=O)cc1OC | inactive
30 | CCN(CC)CCCNC(=O)c1ccc2c(c1)sc1nc(-c3ccc(C)cc3)cn12 | inconclusive: 39.8 µM [cytotoxic, single point]
31 | CCOC(=O)c1c(C)[nH]c(C)c1S(=O)(=O)N1CCN(c2cc(Cl)ccc2C)CC1 | inconclusive: 35.5 µM [cytotoxic, single point]
32 | CCOc1cccc2sc(NC(=O)c3ccc(S(=O)(=O)N4CCCCC4C)cc3)nc12 (configuration not stated) | inconclusive: 39.8 µM [cytotoxic, single point]
33 | CCOC(=O)c1c(C)oc2nc(C)nc(NCCc3ccc(Cl)cc3)c12 | inactive
34 | Cc1cccc(NC(=O)c2cn(-c3ccccc3)nc2-c2ccccc2)c1C | inconclusive: 39.8 µM [cytotoxic, single point]
35 | Cc1ccc(CNC(=O)c2ccc3c(c2)c(C)c(C)n3Cc2ccc(Cl)cc2)o1 | inconclusive: 0.0562 µM [cytotoxic, full curve, poor fit]
36 | Cc1ccc(C(=O)Nc2c(C(=O)Nc3ccc(C)c(C)c3)sc3nc(C)cc(C)c23)cc1 | inconclusive: 39.8 µM [cytotoxic, single point]
37 | Cc1ccc(NC(=O)Cn2c(=O)n(Cc3ccccc3)c(=O)c3c(C)c(C(=O)N(C)C)sc32)c(C)c1 | inconclusive: 22.4 µM [cytotoxic, single point]
38 | COc1ccc(CNS(=O)(=O)c2ccc(-c3cc(C(F)(F)F)on3)s2)cc1OC | inconclusive: 10 µM [cytotoxic, partial curve]

Row | Structure (SMILES) | Potency
39 | COC(=O)c1c(C)oc2ccc(N(C(=O)c3ccncc3)S(=O)(=O)c3ccc(Br)cc3)cc12 | inconclusive: 15.8 µM [cytotoxic, partial curve]
40 | O=C(Nc1cccc(F)c1)c1cnc2sc(N3CCCC3)nn2c1=O | inactive
41 | COc1ccc(-c2noc(N3CCC(C(=O)N4CCN(c5cccc(OC)c5)CC4)CC3)n2)cc1 | inconclusive: 31.6 µM [cytotoxic, single point]
42 | CCNc1nc2c(c(=O)n(C)c(=O)n2C)n1Cc1ccc(F)cc1 | inconclusive: 12.6 µM [cytotoxic, partial curve]
43 | CCOc1ccc(CNC(=O)c2ccc(NC(=O)N3CCCCc4ccccc43)cc2)cc1 | inconclusive: 3.55 µM [rising, full curve, poor fit]
44 | COc1ccc(-c2cn3c(n2)sc2cc(C(=O)NCCCN4CCN(C)CC4)ccc23)cc1 | inconclusive: 25.1 µM [cytotoxic, single point]
45 | CCC(Sc1nnc(-c2ccc(F)cc2)c(-c2ccc(F)cc2)n1)C(=O)NC1CCCC1 (configuration not stated) | inconclusive: 10 µM [cytotoxic, partial curve, poor fit]
46 | CCC(=O)N1CCc2cc(S(=O)(=O)CCC(=O)Nc3cc(Cl)ccc3OC)ccc21 | inconclusive: 39.8 µM [rising, partial curve, poor fit]
47 | CCOc1ccccc1C(=O)Nc1cccc(-c2nc3ccccc3s2)c1 | inconclusive: 0.562 µM [rising, full curve, poor fit]
48 | CCOC(=O)c1cnc2c(ccc3ccccc32)c1Nc1ccccc1O | inconclusive: 2.24 µM [rising, full curve, poor fit]
49 | CCN(C(=O)c1c(C)oc2ncnc(N3CCCCC3)c12)c1cc(C)ccc1C | inconclusive: 31.6 µM [cytotoxic, single point]
50 | CC(C)Oc1ccc(CNC(=O)C(C)n2ccc3cc(S(=O)(=O)N4CCCCCC4)ccc32)cc1 (configuration not stated) | inconclusive: 31.6 µM [cytotoxic, single point]
51 | Cc1ccc(-c2nnc(Nc3ccc(OCC(N)=O)cc3)c3ccccc23)cc1S(=O)(=O)NCC1CCCO1 (configuration not stated) | inactive
52 | Cc1ccc(C)c(N2CCN(CCCNC(=O)c3cnn(-c4cccc(Cl)c4)c3C3CCN(C(=O)OC(C)(C)C)CC3)CC2)c1 | inconclusive: 39.8 µM [cytotoxic, single point]
53 | CCC(C(=O)NCCc1ccc(OC)c(OC)c1OC)n1nc(C)c2sc3ccccc3c2c1=O (configuration not stated) | inconclusive: 31.6 µM [cytotoxic, single point]
54 | CC(=O)Nc1cccc(-c2nnc(SCC(=O)c3cc([N+](=O)[O-])ccc3Cl)o2)c1 | inactive
55 | COc1cccc(N2CCN(C(=O)c3ccc4nc(N5CCC(C)CC5)sc4c3)CC2)c1 | inconclusive: 28.2 µM [cytotoxic, single point]
56 | CCCN1C(C(=O)c2ccccc2)=C(OC(=O)COc2ccc(C)cc2)c2ccccc2S1(=O)=O | inactive
57 | CCN1CCN(C(=O)Cn2ncc3c4ccccc4n(Cc4c(C)cc(C)cc4C)c3c2=O)CC1 | inconclusive: 39.8 µM [cytotoxic, single point]
